Source: the supplement of paper PMC11417369
± gives the standard deviation of the averaged measurements. Some of the results follow.

test system: PfAP2-I AP2 domain 3 (GST-tagged); experiment: gcPBM binding intensity (ln(normalized median fluorescence intensity)); higher = stronger DNA binding
Outline: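 The highest Masliner-normalised natural-log median intensity across replicate spots of either probe orientation is reported as binding intensity. GST-tagged P. falciparum DNA-binding domains expressed in E. coli were applied for 1 h to an Agilent 4 × 180k array of primer-extended double-stranded 36-bp intergenic genomic probes plus negative controls, and bound protein was detected with Alexa488 anti-GST antibody and scanned at 488 nm.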

| Sequence | gcPBM binding intensity (ln) |
| --- | --- |
| ATTTATTTTTATCAAGCATGCATAAAAAATAAATTA [TGCATGCA_site440] | 7.75 ± 0.47 |
| GCATAAAATATGATCGCACACTGTTTAAAATACTTA [CACACA_site828] | 8.07 ± 0.6 |
| ATATTACTAATTAATGGTACACGTTATAATAAACTA [XGTACX_site7051] | 7.77 ± 0.49 |
| AGGTAGTTCTGTATCACACACATATAAATATAAATA [CACACA_site7110] | 7.91 ± 0.57 |
| AAAATATATACAAGCAAACACACGTAATATATATTA [CACACA_site2152] | 7.63 ± 0.61 |
| ATACCTTCTTCATTCACACATATACGTAAAATGTTC [CACACA_site5657] | 8.28 ± 0.65 |
| ATATATCACATGAACATTAAAAAAAAAAAAGAGGGG [TGCATGCA_negctrl_site187] | 8.23 ± 0.12 |
| TTTATACAATTAGACACACACAAAAAGTATAAATAT [CACACA_site6637] | 7.88 ± 0.76 |
| ATATCACATTCCACGGTACACACTAATAGAAAAATC [CACACA_site9204] | 8.19 ± 0.55 |
| GGAACATATGAACTCACACACATTTTCACTTAAATA [CACACA_site3684] | 7.67 ± 0.6 |
| AATATTTATAAATTTACACACACACCGGTGAACATA [CACACA_site8579] | 7.79 ± 0.57 |
| TAAAATGATAAATGAATGTGATCATTTTATAAAATA [CACACA_negctrl_site674] | 7.38 ± 0.6 |
| TGACATAAATTTAATACACACACAAAGAAAAAAAAA [CACACA_site9354] | 7.97 ± 0.61 |
| TTTAAAAAAAAAAAAAAAAATTCTACATGTAATTTA [CACACA_negctrl_site1205] | 7.04 ± 0.41 |
| AGAAGAAAAGAAATATGTACATAAACGTCTGAACTA [XGTACX_site1699] | 7.8 ± 0.71 |
| ATAACAAATATGATAGCATGCTACATATTACAACTT [TGCATGCA_site524] | 7.64 ± 0.63 |
| TGATTAATAGCAGGTAGTACTATAATAATATAAATA [XGTACX_site2776] | 7.95 ± 0.48 |
| GTTCCATATATTACATGTACATATTTTTACATTTAA [XGTACX_site660] | 8.54 ± 0.57 |
| AAAAAAAAAAGACACACACACAAATACAAATGGTAA [CACACA_site6906] | 7.71 ± 0.49 |
| TAAAATTAGGAAATTGCACACAAAAAAAAACATATT [CACACA_site9349] | 8.41 ± 0.41 |
| TTTGTTATATTTAATACACACATATTATAAACCCAT [CACACA_site3716] | 7.95 ± 0.59 |
| ATAAAGCCATACAATACACACATTTTACATGGCTGT [CACACA_site5756] | 7.69 ± 0.65 |

| Sequence | gcPBM binding intensity (ln) |
| --- | --- |
| TACCAAAATAGACACACACACAAAATATGTAAATAT [CACACA_site6963] | 7.77 ± 0.4 |
| TATAAATAAATTTATACACACACACCCATATATATA [CACACA_site8183] | 8.38 ± 0.61 |
| TATATTTTAGTTAATGCATGTGTGCATCCATTTAAA [TGCATGCA_site887] | 9.2 ± 0.23 |
| ATACATATATATATATGTACACACATTAATAAAAAA [XGTACX_site6874] | 8.1 ± 0.43 |
| AAATAACTCATGGGTTGTACTTAAAAAAAAAAAGAT [XGTACX_site4168] | 8.23 ± 0.52 |
| AAACAAAAGTAGAAGGTAGAGTATTTTATATTTAAA [GTGCAC_negctrl_site503] | 7.34 ± 0.56 |
| AAACCTTTAGAAAATCGTACAAAACATAACCACCTA [XGTACX_site1098] | 8.28 ± 0.29 |
| ATTTTTTTTTTTTGTTTTTTCTTACAAATTAAATGA [CACACA_negctrl_site1457] | 7.61 ± 0.47 |
| CTCTTGTCATTTTGCACACACACATGGATAGGTTAT [CACACA_site5655] | 9.99 ± 0.13 |
| TTTTTTTTTTTTCACGTGCACTATACATATAAGTAA | 11.1 ± 0.23 |
| ATATATACATTTCTATGTACATATGTATATATGTAT [XGTACX_site1522] | 7.76 ± 0.32 |
| ATAAAAGAAAACAATAGTACTTTAGTTTTTCTTTTT [XGTACX_site5686] | 7.54 ± 0.34 |
| TTAATCTAGAGAAATTGTACATTTTATTAACACAAT [XGTACX_site1190] | 7.52 ± 0.52 |
| TATATTTGGAAACACACACACAAAAAAAAAAAAAAA [CACACA_site2474] | 8.16 ± 0.76 |
| ATATTTTCTAATCAATGTACTTATTCTACACATTAA [XGTACX_site5774] | 8.03 ± 0.52 |
| ACTACATAAAATGACACACACAAACTTTAAAATTTA [CACACA_site3474] | 7.84 ± 0.3 |
| CACCTGCACGATTGCACACAAATATGTTTTGAAGAT [CACACA_site2103] | 9.39 ± 0.45 |
| ATATTTTATGTAAAGGTGCAAAACAACATTAAAAAA | 10.9 ± 0.47 |
| AACACATACAGACACACACACAAAAAAAAAAAAAAA [CACACA_site6322] | 8.24 ± 0.49 |
| ACCCAATTTTTTAGTACACACATATAAATATATAAA [CACACA_site4944] | 8.32 ± 0.22 |
| TAAAACATGTTTTTATATATTATTATTATATTTATA [XGTACX_negctrl_site8] | 7.33 ± 0.43 |
| AGGATATATAATTAAGTGCATTAATTCAAAATAAAA [GTGCAC_site9702] | 11.5 ± 0.54 |
